We go through 81 molecules from ChEMBL document CHEMBL4888484, “Replenishing the malaria drug discovery pipeline: Screening and hit evaluation of the MMV Hit Generation Library 1 (HGL1) against asexual blood stage Plasmodium falciparum ,using a nano luciferase reporter read-out” (2022).

Each structure is given as a SMILES string. The campaign covered roughly 150,000 compounds. About 540 (0.36%) showed an effect of 50% or more. The list shows a part of the results. *1 amine or outer side, *2 acyl side, *3 side chain or, on linkers, in order; H or OH if unused. Where a SMILES comes first, the peptide text is derived from it. Bridges are numbered along the chain shown (N, C = ends). [ ]: non-standard residue; d: D form. The star is where a group is joined. N(2-Aminoethyl)Gly = O=C(CN(CCN[*:3])[*:1])[*:2]; Benzoyl(3-CF3) = O=C(c1cccc(C(F)(F)F)c1)*; NMeA = CN[C@@H](C)C(=O)O

The subject of this experiment is Plasmodium falciparum. The experiment in a line: Primary screen in NF54 nanoGlo assay, in single point, at 2uM, 72h; a lower Z score goes with more inhibition. The experiment is classed as functional, Erythrocyte. The note with it: timepoint 72 hour.
On to `C[C@H](CCC(=O)N1CCN(Cc2ccc3c(c2)OCO3)CC1)[C@H]1CC[C@H]2[C@@H]3[C@@H](O)C[C@@H]4C[C@H](O)CC[C@]4(C)[C@H]3CC[C@]12C`, for which the % Inhibition (commonly the drop in the measured response relative to a control, in per cent) is listed as -12% and the Z score was 1.44.
For `CCN1C(=O)[C@@](CN2CCN(c3cccc(Cl)c3)CC2)(NC(C)=O)c2ccccc21`, the “% Inhibition” value amounted to 3% and the Z score is -0.4.
The corresponding values for `CCOC(=O)[C@@]1(C(C)C)CCN(Cc2nc(C(C)C)no2)C1` are 0% and 0.
Taken in the same sequence, the figures for `O=C(Nc1ccc(S(=O)(=O)N2CC3CC4CC3C2C4O)cc1)c1cnccn1` (configuration not stated) were 26% and -2.95.
Taken in the same sequence, the figures for `CC[C@H](C)N(Cc1sccc1C)C(=O)CCNC(=O)c1ccc(F)cc1` were 6% and -0.76.
As for `O=C1N[C@@H](COCc2ccccc2)C(=O)N2CCC[C@H]12`, the “% Inhibition” value was found to be 4% and the Z score is listed as -0.57.
Taken in the same sequence, the figures for `COc1cc(OC)cc([C@H]2CCN(C(=O)c3cc(C)n[nH]3)C2)c1` were -3% and 0.28.
Regarding `COc1ccc(-c2nc3cc(C)ccn3c2NC(=O)NCc2ccccc2)cc1`, the “% Inhibition” value is on record as -8% and the Z score stood at 0.92.
The corresponding values for `Cn1c(CO)nnc1C1CCN(C(=O)NC2(c3ccc(Cl)cc3)CC2)CC1` are -8% and 1.11.
The corresponding values for `Cc1cc(C)c(CNC(=O)[C@H](C)OCC2CC2)c(=O)[nH]1` are -32% and 3.77.
As to `O=C(Nc1cncc(F)c1)c1cccc(S(=O)(=O)NCc2ccno2)c1`, the “% Inhibition” value is recorded as -25% and the Z score is listed as 2.33.
The corresponding values for `COc1cc2c(cc1OC)CC(=O)N(CC(=O)c1ccc3c(c1)OCCO3)C=C2` are -12% and 1.68.
The corresponding values for `CN1CCN([C@H]2CCN(C(=O)COc3ccccc3)C[C@H]2CCCO)CC1` are -6% and 1.12.
For the molecule `O=C1CCN(C(=O)C2(c3cccc(Cl)c3)CCCC2)CCN1`, the “% Inhibition” value was found to be 30% and the Z score is listed as -0.41.
The corresponding values for `O=C(Nc1ccc(N2CCOCC2)cc1)C1CC2C=CC1C2` (configuration not stated) are -4% and 0.5.
As for `Oc1ccc(-c2nnc(-c3ccc(O)cc3)nn2)cc1`, the “% Inhibition” value was 39% and the Z score is listed as -2.04.
Consider `Cc1noc(C)c1CC(=O)N[C@H]1CCS(=O)(=O)C1`, for which the “% Inhibition” value was determined as 5% and the Z score is listed as -0.6.
`COc1cc(NC(=O)c2ccc3[nH]c4c(c3c2)CCCC4)c(OC)cc1NC(=O)c1ccccc1`: the “% Inhibition” value is 0% and the Z score was -0.01.
The corresponding values for `CCC[C@H](NC(C)=O)C(=O)NCc1nonc1C` are -16% and 2.38.
In the case of `Fc1ccc2c(c1)ncn1nc(C3CCC3)nc21`, the “% Inhibition” value was 4% and the Z score is on record as -0.66.
The corresponding values for `Cc1oc(-c2nc(C#N)c(N3CCCCCC3)o2)cc1S(=O)(=O)N1CCCCC1` are 2% and -0.29.
For the molecule `O=C(Nc1ccc(S(=O)(=O)N2CCCCCC2)s1)N1CCC[C@H](C(=O)N2CCCCCC2)C1`, the “% Inhibition” value is given as -19% and the Z score was determined as 2.21.
The corresponding values for `COc1ccc(=O)n(Cc2nc3ccccc3s2)n1` are -5% and 0.47.
Regarding `Cc1ncc(C(=O)N2CCN(C)[C@]3(CCC(=O)N(CC4CC4)CC3)C2)c(C)n1`, the “% Inhibition” value was -1% and the Z score is recorded as 0.14.
Regarding `CCc1nc(CN(C)Cc2ncnn2C)no1`, the “% Inhibition” value stood at 0% and the Z score worked out at 0.02.
In the case of `CC(C)Cn1nccc1NCC1=CCCOC1`, the “% Inhibition” value is recorded as -10% and the Z score came to 1.73.
Taken in the same sequence, the figures for `Cc1nnc(CN2CCC[C@@](O)(CNC(=O)N3CCCCC3)CC2)s1` were 1% and -0.14.
As for `COCCn1c(=O)n([C@H]2CCCN(C(=O)Cc3c(C)noc3C)C2)c2ncccc21`, the “% Inhibition” value is on record as -14% and the Z score is recorded as 1.87.
Taken in the same sequence, the figures for `CCC(CC)c1nnc(NC(=O)c2ccc(NC(=O)c3ccccc3)cc2)s1` were 3% and -0.41.
The corresponding values for `COc1cncc(O[C@H]2CCCN(C(=O)Cn3cccn3)C2)n1` are -5% and 0.89.
The corresponding values for `COCC[C@H](NC(=O)NC1(C)CCC1)C(C)C` are -9% and 0.92.
On to `CC[C@@H](c1ccccc1)N(C)Cc1ccc(-c2nc3c(c(=O)[nH]2)CNCC3)cc1`, for which the “% Inhibition” value was -5% and the Z score came to 0.85.
Taken in the same sequence, the figures for `O=S(=O)(N1CCCCCC1)N1CCN(Cc2cc3c(cc2Br)OCCO3)CC1` were 7% and -0.84.
With `CCNc1ccnc(N2CCc3nnc(Cc4cccnc4)n3CC2)n1`, the “% Inhibition” value is 2% and the Z score is listed as -0.23.
The corresponding values for `CC(C)OCCOC[C@@H](O)CN(C)Cc1cccc(Cl)c1` are -2% and 0.32.
Taken in the same sequence, the figures for `Cc1csc(CN(Cc2ccccc2)CC(C)(C)O)n1` were -3% and 0.36.
Consider `N#C[C@@H](C(=O)C1CCC(NC(=O)C2CCCC2)CC1)c1ccccn1` (some centres not stated), for which the “% Inhibition” value is on record as -13% and the Z score was determined as 1.84.
For `Cc1c(C(=O)Nc2ccccc2)[n+]([O-])cn1-c1cc(C(=O)O)ccc1OC(C)C`, the “% Inhibition” value was -12% and the Z score is given as 1.85.
The corresponding values for `Cc1nc(O)nc(C)c1CCC(=O)NCc1nc2c(C)cccc2[nH]1` are -6% and 0.79.
The corresponding values for `CCCc1cc(N2CCN(C(=O)c3ccc(F)cc3)CC2)nc2nnc(C)n12` are 2% and -0.23.
Consider `COc1cccc(CN2CCCN(c3cccc(NC(=O)CC(C)(C)C)c3)C2=O)c1`, for which the “% Inhibition” value is given as 6% and the Z score is listed as -0.86.
Taken in the same sequence, the figures for `CC1CCC(C)(NC(=O)C2=NN(C)C(=O)CC2)CC1` (configuration not stated) were -15% and 2.39.
With `CS(=O)(=O)C1(C(=O)N2CC(C3CC3)C2C2CC2)CCC1` (configuration not stated), the “% Inhibition” value is listed as -3% and the Z score is 0.39.
Taken in the same sequence, the figures for `CN(C)C(=O)c1cccc(-c2cccc3cnccc23)c1` were -9% and 1.25.
The corresponding values for `CC[C@H](O)CN(CCO)Cc1cc(Br)ccc1F` are -11% and 1.78.
Taken in the same sequence, the figures for `CC(C)C(=O)NCCNC(=O)NCC1CC1` were 2% and -0.34.
For `Cc1ccc(CN(CCN2CCOCC2)Cc2ccc(C(O)(c3cccc(F)c3)c3cccc(F)c3)o2)cc1`, the “% Inhibition” value is on record as -12% and the Z score was 1.51.
The corresponding values for `CC(C)C[C@@H]1NC(=O)CN(C(=O)c2cccc(C(F)(F)F)c2)CCNC(=O)[C@H](Cc2ccccc2)NC(=O)[C@H](C)N(C)C1=O` ({Benzoyl(3-CF3)}-[N(2-Aminoethyl)Gly]L[NMeA]F; lactam 1-C) are -10% and 1.25.
Taken in the same sequence, the figures for `O=C(Nc1cccc(OCC(F)F)n1)c1ccc2ncoc2c1` were 6% and -1.08.
Taken in the same sequence, the figures for `O=c1[nH]c2ccccc2c(=O)n1C[C@H]1CC[C@H](C(=O)NC[C@H]2CC[C@H](C(=O)O)CC2)CC1` were -12% and 1.77.
With `O=C(O)CCNC(=O)N1CCC[C@]2(CCCN(Cc3ccccc3)C2)C1`, the “% Inhibition” value is -1% and the Z score was determined as 0.13.
Turning to `CCNc1ncc(C(=O)NC[C@H](O)CN2CCOCC2)cc1Cl`, the “% Inhibition” value is listed as 2% and the Z score is -0.24.
On to `COc1ccc(S(=O)(=O)N2CCOCC2)cc1C(=O)Nc1ccc2c(c1)OCCCO2`, for which the “% Inhibition” value is listed as -9% and the Z score is 1.11.
As for `CCn1cc(-c2ccccc2)cc1C(=O)O`, the “% Inhibition” value is reported as -19% and the Z score worked out at 1.7.
With `COc1nnc(N2C(=O)CN([C@@H](C)c3ccccc3)C2=O)s1`, the “% Inhibition” value was -14% and the Z score turned out to be 1.42.
Taken in the same sequence, the figures for `Cc1cc(C)c(NS2=NC(C(Cl)(Cl)Cl)=NC(C(Cl)(Cl)Cl)=N2)c(C)c1` (configuration not stated) were 2% and -0.37.
The corresponding values for `Cc1nccn1CCCCNC(=O)c1ccc2c(c1)OCCO2` are -2% and 0.3.
For `O=C(c1ccon1)N1CC[C@H]2[C@H](CCC(=O)N2CCCn2ccnc2)C1`, the “% Inhibition” value is -9% and the Z score was 1.78.
For the molecule `Cc1cc(N2CCC[C@H]2c2c(C)nn(C)c2Cl)n2ncnc2n1`, the “% Inhibition” value was determined as 14% and the Z score is recorded as -2.26.
Taken in the same sequence, the figures for `CCN(CC)/C(=N\Nc1cccc(Cl)c1)C(C)=O` were -18% and 2.11.
Turning to `O=C(C[C@H]1CCOC1)Nc1ccc(CNc2ccccc2)cc1`, the “% Inhibition” value was 4% and the Z score was -0.76.
With `Cn1ccc([C@H]2CCCN(S(=O)(=O)c3ccc(F)c(-c4nnn[nH]4)c3)C2)n1`, the “% Inhibition” value is recorded as 16% and the Z score is recorded as -1.85.
Taken in the same sequence, the figures for `CN(Cc1nccs1)[C@@H](c1ccc(Cl)cc1)c1ncccn1` were -12% and 1.13.
As for `O[C@H]1CN(Cc2cnc(NCc3ccccc3)nc2)C[C@@H]1F`, the “% Inhibition” value was -10% and the Z score is on record as 1.9.
The corresponding values for `COc1ccc(NC(=O)c2csc(NC3CC3)n2)c(OC)c1` are -5% and 0.65.
On to `COc1ccc(-c2nccn3cc(C(=O)N4CCN(C5CCCCC5)CC4)nc23)cc1`, for which the “% Inhibition” value was determined as 8% and the Z score is given as -1.35.
In the case of `CCn1ccc(C(=O)N2CCCn3nc(-c4nc5ccccc5[nH]4)cc3C2)n1`, the “% Inhibition” value is on record as -11% and the Z score stood at 2.04.
In the case of `O=C(Nc1cccn2c(C3CCC3)nnc12)c1cnccn1`, the “% Inhibition” value is listed as -8% and the Z score came out at 1.58.
For `C[C@@H]1OCCO[C@@H]1C(=O)Nc1nc(-c2ccccc2Cl)nn1C`, the “% Inhibition” value is reported as -6% and the Z score is listed as 1.01.
Consider `Cc1ccccc1CC(=O)N1C[C@H](C(=O)O)[C@@H](c2ccc3c(c2)OCO3)C1`, for which the “% Inhibition” value is -16% and the Z score turned out to be 1.76.
The corresponding values for `CC(C)CCn1c(=O)c2c(ncn2Cc2ccccc2)n(-c2ccccc2Cl)c1=O` are -8% and 0.71.
Taken in the same sequence, the figures for `COc1ccc(-n2c(C)cc(C(=O)N3CC[C@H](C(=O)O)C3)c2C)cc1` were -1% and 0.2.
On to `CCOc1ccc2ccccc2c1[C@@H]1N=C(O)c2ccccc2N1`, for which the “% Inhibition” value is on record as 10% and the Z score is listed as -1.18.
Taken in the same sequence, the figures for `Cc1cc(CN(C)c2nc(C)ncc2C)ccn1` were -7% and 1.36.
Turning to `O=C(NCC1CCN(c2cccnc2)CC1)c1cncc(Br)c1`, the “% Inhibition” value is 18% and the Z score is -2.25.
The corresponding values for `Cc1cc(CNC(=O)N[C@H](C(N)=O)C(C)C)cnc1C` are -17% and 1.52.
Consider `COc1ccccc1-c1nc(NC[C@H]2CCCO2)nc2nn(Cc3ccccc3)c(N)c12`, for which the “% Inhibition” value was 4% and the Z score is listed as -0.49.
On to `CS(=O)(=O)N1C[C@H]2CC[C@@H](C1)N(C(=O)COCc1ccccc1)C2`, for which the “% Inhibition” value is recorded as -3% and the Z score is on record as 0.49.
Take `Cc1nsc(NC(=O)N2CCC(C(=O)N3CCCC3)CC2)n1`: the “% Inhibition” value worked out at 4% and the Z score is on record as -0.78.
The corresponding values for `COC1(CC(=O)NCCc2c[nH]c3ccccc23)CCC1` are -9% and 1.13.
Taken in the same sequence, the figures for `Cc1cc(C(=O)N(C)CC2(C)CCOCC2)nn1C` were 0% and 0.04.
